{"source": "PubChem BioAssay AID485281", "about": "(National Center for Advancing Translational Sciences (NCATS), 2010)", "note": "In all, about 350,000 compounds went through this assay and about 260 (0.074%) were called active. Inconclusive means that the source gave no clear call. Such entries were picked first, then a sample of the others. Calls follow the shape of the dose curve; as a rule, active = well fitted inhibition curve with a large enough effect; inconclusive = small, poorly fitted or top-dose-only effect; inactive = no such curve, though single readings can be large or run the other way. Potencies beside an inconclusive call are fits to weak or partial responses and may not hold up. Potency is read from the fitted curve at half-maximal effect; tags tell the direction and shape of the fitted curve."}
{"target": "Ferritin light chain (Equus caballus) (UniProt P02791)", "sequence (P02791 whole entry, looked up)": "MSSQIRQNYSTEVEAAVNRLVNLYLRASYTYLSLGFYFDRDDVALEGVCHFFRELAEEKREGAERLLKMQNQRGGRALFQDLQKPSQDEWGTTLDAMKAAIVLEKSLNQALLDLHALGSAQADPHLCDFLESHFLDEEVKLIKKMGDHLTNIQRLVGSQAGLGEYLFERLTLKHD", "experiment": "qHTS Assay for Identification of Novel General Anesthetics; also: nearly all actives have a fitted effect of over 20% in size", "details": "apoferritin/1-aminoanthracene competitive binding, fluorescence; series mostly up to 77.5 µM", "outline": "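10 uM apoferritin + 50% sat. 1-AMA, PBS; cpd 10 min RT; Ex380/Em535 endpoint; normalized to free probe vs complex; 4-param Hill fit; propofol titration as pos. ctrl.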"}
{"smiles": "O=C(CCn1c(=O)c2cccn2c2cccnc21)NCc1ccc(Cl)cc1", "Potency": "inactive"}
{"smiles": "O=C(Cc1ccc(-c2ccccc2)cc1)Nc1ncccc1O", "Potency": "inconclusive: 22.4 µM [inhibitor, partial curve]"}
{"smiles": "CC(=O)c1ccc(NC(=S)NNC(=O)NC2CCCCC2)cc1", "Potency": "inconclusive: 35.5 µM [inhibitor, single point]"}
{"smiles": "CCOc1ccc(S(=O)(=O)N(CC(=O)N/N=C/c2ccc(-c3ccc([N+](=O)[O-])cc3)o2)c2ccccc2)cc1", "Potency": "inconclusive: 22.4 µM [inhibitor, partial curve]"}
{"smiles": "Cc1cccc(OC(=O)c2nc(SCc3ccccc3F)ncc2Cl)c1", "Potency": "inconclusive: 22.4 µM [inhibitor, partial curve]"}
{"smiles": "CCc1nnc(NC(=O)COC(=O)CN2C(=O)c3ccccc3C2=O)s1", "Potency": "inconclusive: 28.2 µM [inhibitor, single point]"}
{"smiles": "Cc1ccc(C(=O)OCc2nnc(-c3ccc(Br)cc3)o2)cc1", "Potency": "inconclusive: 28.2 µM [inhibitor, partial curve]"}
{"smiles": "Cc1ccc(NC(=O)c2sccc2SCc2cccc(C(F)(F)F)c2)cc1", "Potency": "inconclusive: 15.8 µM [inhibitor, partial curve]"}
{"smiles": "Cc1nc2ccn(Cc3cccs3)c(=O)c2cc1C(=O)NCc1ccc(Cl)cc1", "Potency": "inconclusive: 7.94 µM [inhibitor, full curve, poor fit]"}
{"smiles": "COc1cc2nc(Nc3ccc(C)c(C)c3)nc(N)c2cc1OC", "Potency": "inactive"}
{"smiles": "CCOc1ccc(CN(C(=O)c2cc(=O)c3cc(Cl)ccc3o2)C2CCS(=O)(=O)C2)cc1", "note": "(centres undefined)", "Potency": "inconclusive: 14.1 µM [inhibitor, partial curve]"}
{"smiles": "NC(=O)C(c1ccc(Cl)cc1Cl)c1ncc(C(F)(F)F)cc1Cl", "note": "(centres undefined)", "Potency": "inactive"}
{"smiles": "CCOC(=O)C(CC)(CC)C(=O)/C=C/c1ccc(Br)cc1", "Potency": "inconclusive: 22.4 µM [inhibitor, partial curve]"}
{"smiles": "O=C(N/N=C/C(Br)=C/c1ccccc1)NC1CCCCC1", "Potency": "inconclusive: 7.94 µM [inhibitor, partial curve]"}
{"smiles": "O=c1[nH]cnc2sc3c(c12)CCCC3", "Potency": "inactive"}
{"smiles": "CCc1ccc2nc3sc(C(=O)Nc4nnc(CC)s4)c(N)c3cc2c1", "Potency": "inconclusive: 50.1 µM [inhibitor, single point]"}
{"smiles": "O=S(=O)(Nc1ccc2cn[nH]c2c1)c1ccccc1", "Potency": "inconclusive: 31.6 µM [inhibitor, single point]"}
{"smiles": "Cc1csc(SCC(=O)c2ccc(S(=O)(=O)N3CCOCC3)cc2)n1", "Potency": "inconclusive: 31.6 µM [inhibitor, partial curve]"}
{"smiles": "CC(C)(C)C(=O)Nc1cccc2[nH]ncc12", "Potency": "inconclusive: 35.5 µM [inhibitor, single point]"}
